The results in this text go back to the RNAGym collection of RNA variant scans (doi:10.1101/gad.245936.114).

The chains are these.
B1: tRNA (parent)
chain: CUCUCGGUAGCCAAGUUGGUUUAAGGCGCAAGACUUUAAUUUAUCACUACGAAAUCUUGAGAUCGGGCGUUCGACUCGCCCCCGGGAGAUUUUUUCCUCGAGCAA

This sample is rich in variants without activity.

In the data set the parent is B1. In words: nonsense suppression (GFP-seq) (ratio to wild type); higher = more function; SUP4oc tRNA, yeast GFP reporter sort-seq. In short, it runs like this: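 To measure nonsense suppression, tRNA variants from a library carrying ~3% random mutations were integrated into the yeast genome alongside RFP and a GFP ochre reporter under galactose control. Growth took place in raffinose/galactose medium supplemented with 80 mg/L adenine, followed by sorting into GFP/RFP bins and Illumina sequencing of each bin (phred ≥30). For each variant with ≥100 reads and ≥30 cells, the bin median GFP/RFP values were weighted by its estimated cell share per bin and referenced to the unmutated parent tRNA.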
On to G25A G73C A87G, for which the nonsense suppression is no more than 0.026.
For G32C C75U, the nonsense suppression was no more than 0.026.
For the variant A14G U16G C77A, the nonsense suppression was no more than 0.026.
Regarding A13C C81A A89G, the nonsense suppression is no more than 0.026.
Consider A30U U55C A87C A89U, for which the nonsense suppression was found to be 0.0456.
Regarding U22C A23G G65C, the nonsense suppression was no more than 0.026.
For G61C C75A, the nonsense suppression was 1.06.
The same measure for G61C C75G: 1.21; for U63G U70A: no more than 0.026.
As to U16C G26A A31G, the nonsense suppression was no more than 0.026.
With G26U C64A G66U the figure was no more than 0.026; with A9U A24C C79U, no more than 0.026; with G25U A33G G84U, no more than 0.026.
With G6A G66C the figure was no more than 0.026.
The same measure for U4G U57G C80G: no more than 0.026.
For U16C G32A G59A C82G, the nonsense suppression is no more than 0.026.
For the variant G15C G61A, the nonsense suppression was no more than 0.026.
As for U22C G61U U63C, the nonsense suppression is 0.17.
The same measure for C1G U17G: no more than 0.026.
With U76G G84A, the nonsense suppression was no more than 0.026.
Regarding C11U U63A, the nonsense suppression was no more than 0.026.
As to C11A U17C C34A, the nonsense suppression was no more than 0.026.
Take C1G U8A G84C: the nonsense suppression was no more than 0.026.
On to U35G G86C, for which the nonsense suppression was no more than 0.026.
In the case of C29A U63C G85A, the nonsense suppression was no more than 0.026.
Regarding A24U G67C, the nonsense suppression is no more than 0.026.
Consider U21C A31C G78U, for which the nonsense suppression was no more than 0.026.
As to A30C A33G, the nonsense suppression is no more than 0.026.
For A30C A33U, the nonsense suppression is no more than 0.026.
In the case of G6C C72G A74C, the nonsense suppression was no more than 0.026.
With A23G A30U C83A the figure was no more than 0.026; with C3A G67C U70C G78U, no more than 0.026; with U58A C82A, no more than 0.026.
For A31U U58A, the nonsense suppression was no more than 0.026.
On to C56U C68A U76A A87U G88A, for which the nonsense suppression was no more than 0.026.
For the variant G18C C81G G88A, the nonsense suppression was no more than 0.026.
Consider C1U C5A, for which the nonsense suppression was no more than 0.026.
The same measure for G18C C56G G67C: no more than 0.026; for U2A A62U G66U C68G C80U G88U: no more than 0.026.
With G10A C12A A23C C29U G69C the figure was no more than 0.026.
Regarding U57C U58C, the nonsense suppression was no more than 0.026.
Regarding C3U G61A C77G, the nonsense suppression was no more than 0.026.
With A23U G84U G86U the figure was no more than 0.026; with A31C C75G, no more than 0.026.
As to C5U A24C G25C C72A A89G, the nonsense suppression was no more than 0.026.
The same measure for A9U G86U G88A: no more than 0.026; for G32A A74G: no more than 0.026.
As for U20A G85U, the nonsense suppression was 0.0676.
On to G18C C29G G61C G67A U76G, for which the nonsense suppression is no more than 0.026.
For U57C G69A, the nonsense suppression is no more than 0.026.
Take C12A U21A A54U G69U: the nonsense suppression is no more than 0.026.
With C64U G88C the figure was no more than 0.026; with A14C C27G G28C G86U, no more than 0.026; with U2C U17G A54G G59C C83A, no more than 0.026.
Regarding G6U U58G, the nonsense suppression was no more than 0.026.
With A9G G19A A33U A60G, the nonsense suppression is no more than 0.026.
G32U C34U: the nonsense suppression was no more than 0.026.
The same measure for U8A A13G C34A: no more than 0.026.
For the variant G15C U55C, the nonsense suppression is no more than 0.026.
Take U2G G19U A31U C83A G84A: the nonsense suppression is no more than 0.026.
For the variant C12A A30C, the nonsense suppression was no more than 0.026.
For G65C C83G, the nonsense suppression is no more than 0.026.
For the variant C34G A87G, the nonsense suppression was no more than 0.026.
Consider A13G U35C, for which the nonsense suppression is no more than 0.026.
With C12A C72A G85C the figure was no more than 0.026; with C11U G19A G28U U57C, no more than 0.026.
With C12U A30C G59C G61U the figure was no more than 0.026; with C77U G86A, no more than 0.026.
On to C1U A13C C68G, for which the nonsense suppression was no more than 0.026.
For C3U A14C G28A A74U, the nonsense suppression is no more than 0.026.
U2A A13U C56G: the nonsense suppression is no more than 0.026.
On to G6C C80A, for which the nonsense suppression is no more than 0.026.
On to C11G G19U, for which the nonsense suppression was no more than 0.026.
On to A24U G78C C80G, for which the nonsense suppression is no more than 0.026.
Regarding A23C A31U U55A G78C, the nonsense suppression was no more than 0.026.
On to G15C A31G U57C U63A U70G G85A, for which the nonsense suppression was no more than 0.026.
Regarding G65A G67A, the nonsense suppression is no more than 0.026.
Consider A13U C29U, for which the nonsense suppression turned out to be 0.751.
Consider U21G A30U C56A, for which the nonsense suppression was no more than 0.026.
Take G7C U20G A24U A33G G88C: the nonsense suppression was no more than 0.026.
For the variant C3U U22G A23C A30U, the nonsense suppression was no more than 0.026.
Consider U35C U63G, for which the nonsense suppression was found to be 0.0352.
Consider G28A A33U A54U C77A, for which the nonsense suppression is no more than 0.026.
In the case of G6A G26A, the nonsense suppression was no more than 0.026.
Take C11G G19U A23U: the nonsense suppression is no more than 0.026.
C3A C5A U21G G66U: the nonsense suppression is no more than 0.026.
As to G15C A74U, the nonsense suppression was no more than 0.026.
With U17A G86U, the nonsense suppression was no more than 0.026.
Turning to U2G G10C U21C U71A, the nonsense suppression is no more than 0.026.
The same measure for U22A A30G A60C: no more than 0.026; for U17G C56G: no more than 0.026.
Take G19U G67A: the nonsense suppression is no more than 0.026.
Regarding C5U C56U A60C C68G, the nonsense suppression is no more than 0.026.
C27G G86A: the nonsense suppression is no more than 0.026.
With A24G C83A the figure was no more than 0.026; with U76G A87C, no more than 0.026.
Turning to U8C G19C U57G G65A U71G, the nonsense suppression was no more than 0.026.
G19A C27A: the nonsense suppression was no more than 0.026.
Regarding U22G C29U A31G, the nonsense suppression is no more than 0.026.
Consider G15C A31G G32C A89C, for which the nonsense suppression is no more than 0.026.
Regarding U57A C72G, the nonsense suppression is no more than 0.026.
Take U21C C27U: the nonsense suppression was 0.154.
For the variant A54G G88U, the nonsense suppression was no more than 0.026.
On to G84A A89G, for which the nonsense suppression was no more than 0.026.
A9U U22A A23U U63G A89C: the nonsense suppression was no more than 0.026.
For the variant A14U A62C, the nonsense suppression was no more than 0.026.
U4A G69C: the nonsense suppression is no more than 0.026.
C11G U16G G66A: the nonsense suppression is no more than 0.026.
In the case of C64U G78U C80U, the nonsense suppression was no more than 0.026.
For the variant C11G G18U A23C A54C, the nonsense suppression is no more than 0.026.
Consider A13G C80A, for which the nonsense suppression is no more than 0.026.
Take U2A G10C U21A U35C: the nonsense suppression is no more than 0.026.
As for A54C C56U U58A G66C, the nonsense suppression is no more than 0.026.
For the variant C34A G84U, the nonsense suppression was no more than 0.026.
With C5A U57G the figure was no more than 0.026.
Regarding A23C C77G, the nonsense suppression was no more than 0.026.
Consider A31G G61A, for which the nonsense suppression amounted to 0.8.
U2A A9U G78A: the nonsense suppression is no more than 0.026.
A24G A87C: the nonsense suppression was no more than 0.026.
For the variant A30C A31U U71C G86A, the nonsense suppression is no more than 0.026.
On to C27G U71G, for which the nonsense suppression is no more than 0.026.
Turning to U2C C75U, the nonsense suppression was 0.206.
For the variant G15U G67A, the nonsense suppression is no more than 0.026.
C12U G59A G65C: the nonsense suppression was no more than 0.026.
For the variant A23G C77A, the nonsense suppression was no more than 0.026.
Turning to A24C U57G, the nonsense suppression is no more than 0.026.
On to C56A A62G U71C, for which the nonsense suppression is no more than 0.026.
In the case of A33G C56A C68U G88A, the nonsense suppression is no more than 0.026.
With G10C C11A G69U U70G the figure was no more than 0.026; with U21G G88U, no more than 0.026; with U16A A54G C77G, no more than 0.026.
On to G25U U71G, for which the nonsense suppression is no more than 0.026.
With G25C A54C, the nonsense suppression is no more than 0.026.
Regarding U4C A89G, the nonsense suppression was no more than 0.026.
With U21A U70A the figure was no more than 0.026; with A13U G18A G78A, no more than 0.026; with U57C U58A A62C, no more than 0.026.
As to A23U C82G, the nonsense suppression is no more than 0.026.
Consider G59A C75G, for which the nonsense suppression is no more than 0.026.
Turning to G15A U22A A24G C34U, the nonsense suppression was no more than 0.026.
Regarding A14C U16G, the nonsense suppression was no more than 0.026.
For the variant G18C G84C, the nonsense suppression was no more than 0.026.
As to C5G A14G U57G C64G, the nonsense suppression was no more than 0.026.
Turning to C5A A14G G32U, the nonsense suppression is no more than 0.026.
Consider A24C A33G G67U C75A, for which the nonsense suppression is no more than 0.026.
Consider U22C U35G U57G G73U G88U, for which the nonsense suppression was no more than 0.026.
With G73A A87U, the nonsense suppression stood at 0.0409.
With U17G U71C G78C the figure was no more than 0.026; with A31U C34U, no more than 0.026.
Regarding G19U C79U, the nonsense suppression is no more than 0.026.
For G15U C64U, the nonsense suppression was no more than 0.026.
C12U U20A C83G: the nonsense suppression is no more than 0.026.
With A60C G65A G69U, the nonsense suppression is no more than 0.026.
With A74C G85C the figure was no more than 0.026; with C5A G19C A62G, no more than 0.026.
Regarding G26U C68A G73A C77G, the nonsense suppression is no more than 0.026.
For U4G G18U G66U C72G, the nonsense suppression is no more than 0.026.
On to C3A U20A A87G, for which the nonsense suppression was no more than 0.026.
Regarding A33G A54U, the nonsense suppression came out at 0.0526.
In the case of C3U G59C, the nonsense suppression was no more than 0.026.
